# Laboratory results taken from PMC12136788.
# The list shows a part of the results.
# B1: 66471940_66472060_1036_CDS_ENSMUSG00000015222_ENSMUST00000077355|mouse|control|control (ssRNA)
# RNA: GGGAGUUCUACAGUCCGACGAUCGAUUUUGGACUUGACAUUCUUCAGGUCCGGCAGUGGUUGGUUAAUAAGCCGAAGCUGCUUAGGAGUAGCUGGGGACUUUGGAGGAGUGCGGAUGAUGGCAACUUUCUUCUCACUGGGCACCAACAGAGGAUUGAGCAUCA
# B2: chr2:166753246:166753247:+_ENSMUSG00000002718_ENSMUST00000002790|mus_mus|motif|central (ssRNA)
# RNA: GGGAGUUCUACAGUCCGACGAUCAAACAGAUUCUUAUAAUGUGGCCUUUCACAAACUGAAGCCAGAAACUGAAUUGCAUUGCGGACCAACAAGUCAUAUUUAACUUCUCGCCCUGUUGUAACGAGUAAGUUCCAGAUAGCUGUCAACAGAGGAUUGAGCAUCA
# B3: chr9:95013113:95013114:-_ENSG00000196305_ENST00000443024|hu_hu|hu_hu_hu_mus_False|8_18 (ssRNA)
# RNA: GGGAGUUCUACAGUCCGACGAUCCUCAGUCAGAAAGGGCGUGUAAGGGGCCAUCAGUCUGCACAGAGAAAGCAGGACACUGAACAGUGUCUCCAGAGCCAUGACACAGUCUUCCACCCCAUUUUCACCCUUUAAUCUCCUCCUCAACAGAGGAUUGAGCAUCA
# B4: 89226026_89236121_890_CDS_ENSG00000065243_ENST00000370521|human|control|control (ssRNA)
# RNA: GGGAGUUCUACAGUCCGACGAUCUGCCUGAAGAAUCUGCAUUCGUAUGACUUCUAUUUUUGUCUUGCUGUCCUGGAGCAGUUGCUGAGCUGUACCAUGGAGUUUCCGAUCCUUUGAAGAUCCAUUUGAAUACAUCUGUAUCAUCAACAGAGGAUUGAGCAUCA
# B5: chr18:56819859:56819860:+_ENSG00000166562_ENST00000588875|hu_mus|hu_hu_hu_mus_True|8_8 (ssRNA)
# RNA: GGGAGUUCUACAGUCCGACGAUCAACCUUGAUUACUCUGUGAACUAUCGGAAUGUCUCUUCCUUCAACCUUAAAAACAACUAUUUCACCAGCUCUGAUGGGGUCCUCCCGGAAAUUCGUGAGGAACAGGAGGUCUCCUCUGUGCAACAGAGGAUUGAGCAUCA
# B6: chrM:14062:14063:+_ENSG00000198786_ENST00000361567|hu_hu|motif|central (ssRNA)
# RNA: GGGAGUUCUACAGUCCGACGAUCGUGAUGAUGGAGGUGGAGAUUUGGUGCUGUGAAAUUGUUUUAGGUAAUAGCUUUUCGGGUCAGGUUAGGUCUAGGAGGAGUAGGGGCAGGUUUUGGCUCGUAAGAAGGCCUAGAUAGGGGCAACAGAGGAUUGAGCAUCA
# B7: 126749318_126751576_781_3pUTR_ENSMUSG00000027366_ENSMUST00000028844|mouse|control|control (ssRNA)
# RNA: GGGAGUUCUACAGUCCGACGAUCGUCUUCCACUGACUUCAUGUUUUCCAAUUCAAUAAGUCCACUCCAGUAUCCUCCUAAGGCCACAGUGAACACAGCAAUUACAAAAAUAACCACCAGAGUAUAGUCAAAGUUAGGCCAGGACAACAGAGGAUUGAGCAUCA
# B8: chr8:95500983:95500984:-_ENSG00000164944_ENST00000437199|hu_hu|hu_hu_hu_mus_True|78_88 (ssRNA)
# RNA: GGGAGUUCUACAGUCCGACGAUCAGAACACAUCUAUCGAGUAAAGGGAGCGUACAUGACGACCUCUCCACUGCCUCCACUAACAAACUUUCCUCUCGAGCCUCCACUGCCGCUAUUUGUACUAGCCCAGGACGGUCCCAGGCCCAACAGAGGAUUGAGCAUCA
# B9: chr3:35992786:35992787:+_ENSMUSG00000027710_ENSMUST00000011492|mus_mus|FALSE|FALSE (ssRNA)
# RNA: GGGAGUUCUACAGUCCGACGAUCAAAAAUGGAGCAGAUACCGAAAGAAAGGUCAUCCAGAGAUGGGCCCAAUUUGCAAUCUAUCCUAUGUAAAGGCACCAAACACCAACACUAUUACUGCUGUGUUUGCAGAUAGGAGCCCAGCAACAGAGGAUUGAGCAUCA
# B10: chr4:54294246:54294247:+_ENSG00000145216_ENST00000306932|hu_hu|motif|central (ssRNA)
# RNA: GGGAGUUCUACAGUCCGACGAUCUGGAGGAGGUGGAAGGUGAGUGGGAGGAGCUCCUGGAGGGAAAAACGGAGGUGGUUUGCGGAAAUUGUUGUCUACUUCAGUAGCAGAUCUUUCAGAAAGGACCUGUAUGUUGCUGUUCUCCAACAGAGGAUUGAGCAUCA
# B11: chr1:46067948:46067949:+_ENSG00000132780_ENST00000351223|hu_hu|FALSE|FALSE (ssRNA)
# RNA: GGGAGUUCUACAGUCCGACGAUCUUCCUGGAAUGCAUUGACAGCUGCUGGAAUAUCCCCCAUCACCAGAUGUUUCUGUCCUAAACCCAAUAGUUUCUUAGCUUCACUAUCCACAUCCAGACUCUCCACUUUAUCUGCAGAUGUCAACAGAGGAUUGAGCAUCA
# B12: chr18:51681570:51681571:-_ENSG00000134046_ENST00000256429|hu_hu|motif|central (ssRNA)
# RNA: GGGAGUUCUACAGUCCGACGAUCGAUAUAUACAUCAAAAAUACAUCUAAAAAGGCAUUGGUUAGUGCUAUUAAAAAGCUCGGUGUGCUCGGGUACAUUUUUUUUCUUACAGGCAAAAGCCAGUGGAAACAUUUUUGUUCAAUUCAACAGAGGAUUGAGCAUCA
# B13: chr15:5129413:5129414:+_ENSMUSG00000050697_ENSMUST00000051186|mus_hu|FALSE|FALSE (ssRNA)
# RNA: GGGAGUUCUACAGUCCGACGAUCAAAACAAAGAGGGAGGGAUAUGGAAGAAGUUAUCCAGACUGUUACUACUGCUGGAAGAUACUAGCUAUUUAUGAAGUUAAGGAGCCCAGAAAACAAAAUCACCUAUAAAGGUCUUGGGAACAACAGAGGAUUGAGCAUCA
# B14: chr1:55207850:55207851:+_ENSMUSG00000025979_ENSMUST00000162364|mus_hu|motif|central (ssRNA)
# RNA: GGGAGUUCUACAGUCCGACGAUCCCGAUGAUGAAAAUAAGCAUGUGAAAAUAUUCUGUAAAUCCUACGGCAUACUGAUCCGGGUUUCGCUACAGAUGAUUCCUUUAUGCUAACCCUGCUGGGAAAAUAUUUAUUGCUAUUCAGCAACAGAGGAUUGAGCAUCA
# B15: chr5:138658563:138658564:+_ENSG00000015479_ENST00000502499|hu_mus|motif|central (ssRNA)
# RNA: GGGAGUUCUACAGUCCGACGAUCAUCUUUUUUCACAGCUUUAUCUGAAGGCUCCUUUUUCCCAUCAGAAGAUACAUCCCCGGAAUUAGCAAGAUCGGUCUCAUCGCCCACUGAACUACCACUUUCUAGUAGUGCUGCAGCUUCCAACAGAGGAUUGAGCAUCA
# B16: 120672017_120672256_5933_CDS_ENSMUSG00000025153_ENSMUST00000055655|mouse|control|control (ssRNA)
# RNA: GGGAGUUCUACAGUCCGACGAUCGGCCCCCUCCAGUGAGCUCACGUUGCUUGUUGACACGAGCACUUGGAUGCCCUGGCGUCUCCACUCCCGAAUGUGCUUGGCUUGGUAGCCGGUGCGGAUUCCAGAUCGGGAAGUCAGCACCAACAGAGGAUUGAGCAUCA
# B17: chr14:102368134:102368135:+_ENSG00000078304_ENST00000445439|hu_hu|hu_hu_hu_mus_True|68_78 (ssRNA)
# RNA: GGGAGUUCUACAGUCCGACGAUCAAGAGGCUCCAUGAUCUUCACAAACUCUGAUGGUUCAAUGACAUCUAAAAUCUCUUCUAAUUCAUUUAAGAACAUUACUUCUUUUGGACUGUGAGUCUUUGGCCAGUAUUUGAGAAGUGCCAACAGAGGAUUGAGCAUCA
# B18: chr17:45747064:45747065:+_ENSG00000108424_ENST00000290158|hu_hu|hu_hu_hu_mus_True|28_98 (ssRNA)
# RNA: GGGAGUUCUACAGUCCGACGAUCGCCCACAGUCCACGCAGCUGUAUCUCGAACAACUACACUGGGGUCUUUCAUUAGUUCUAUUAGGGUGGGCAUAGCCUGUAUGACUAGUGGUUUCAGUUGAUUAGGCUCUGGUCCUUCCAACAACAGAGGAUUGAGCAUCA
# B19: 104830079_104830199_188_5pUTR_ENSMUSG00000028517_ENSMUST00000064139|mouse|control|control (ssRNA)
# RNA: GGGAGUUCUACAGUCCGACGAUCUGCCCCGGACGCGUCCGGCUGGCGUGCGUCUGCGUGCUGGAGUUUGCGAGUGGGCAGCGUCGGCGUCCCGCCACGAUCCUCCGCAGCUACUUAAUGAAUGGAGCAGCGCGGAGCCCUGCACAACAGAGGAUUGAGCAUCA
# B20: chr19:8913615:8913616:-_ENSMUSG00000071658_ENSMUST00000096259|mus_hu|mus_mus_mus_hu_False|58_78 (ssRNA)
# RNA: GGGAGUUCUACAGUCCGACGAUCAGGGUACCAAAACCUUCUGCCUGAAAUGGGUGCCCCACCCUGCAGGGAGUUGCAGCUAAAAAUAUCUGAUGCAGAAGCAGUGACUAUACGAAAGGAGGCCCCUGGGGAGGGCCAGGCCAGCAACAGAGGAUUGAGCAUCA
# B21: 130609336_130615730_1729_3pUTR_ENSMUSG00000031256_ENSMUST00000033609|mouse|control|control (ssRNA)
# RNA: GGGAGUUCUACAGUCCGACGAUCCCUUCUCAUGAUCCUGGGGUGUGACUUGGCUCUGUCCAGGACUAAAGCCACCAGGCUGGCUUCCACCUUGCAUGCUUGCUCCUUGCAUGCCUGCUCCCUGCAUGACUGGUACCUGUCUGGCAACAGAGGAUUGAGCAUCA
# B22: chr10:112764417:112764418:+_ENSG00000108061_ENST00000369452|hu_hu|motif|central (ssRNA)
# RNA: GGGAGUUCUACAGUCCGACGAUCGAUGGUAGAAAACUGAGAUGGACCACCCACUGGAUACAACUGGAAGCAAUUUCGGGCGGAGGUCAAACUAUUCAGUUUCACAAGACUUGAUAAAAGACUCUCUGGUAAAGUAGAAAUGUUCAACAGAGGAUUGAGCAUCA
# Molecular target: T1, UNK ZnF1-3 (human, UniProt Q9C0B0 31-174)
# T1 sequence: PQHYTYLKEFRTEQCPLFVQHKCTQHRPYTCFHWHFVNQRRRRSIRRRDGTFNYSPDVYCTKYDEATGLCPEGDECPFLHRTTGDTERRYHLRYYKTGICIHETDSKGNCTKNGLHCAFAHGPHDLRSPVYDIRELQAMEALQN
# Assay: nsRBNS (natural sequence RNA bind-n-seq); RBNS binding buffer (assumed for nsRBNS): 25 mM Tris pH 7.5, 150 mM KCl, 3 mM MgCl2, 0.01% Triton X-100, 500 ug/ml BSA, 20 U/ml SUPERase-In, 4 C; UNK is unkempt and MSI1 is Musashi-1; names of the RNAs are library labels; protein concentration not given here; high values mean tight binding
row,Binder,binding signal [enrichment R]
1,B1,0.858
2,B2,0.905
3,B3,1.12
4,B4,0.509
5,B5,0.786
6,B6,2.77
7,B7,1.32
8,B8,1.44
9,B9,1.21
10,B10,1.36
11,B11,0.915
12,B12,1.06
13,B13,1.8
14,B14,1.25
15,B15,0.798
16,B16,0.707
17,B17,0.706
18,B18,0.661
19,B19,0.74
20,B20,1.81
21,B21,0.581
22,B22,1.3
